Measured values from ChEMBL document CHEMBL4888484, “Replenishing the malaria drug discovery pipeline: Screening and hit evaluation of the MMV Hit Generation Library 1 (HGL1) against asexual blood stage Plasmodium falciparum ,using a nano luciferase reporter read-out” (2022).
The campaign covered roughly 150,000 compounds. About 540 (0.36%) showed an effect of 50% or more. The list shows a part of the results.

System: Plasmodium falciparum
Assay: Primary screen in NF54 nanoGlo assay, in single point, at 2uM, 72h; a lower Z score goes with more inhibition
Assay type: functional, Erythrocyte
Conditions: timepoint 72 hour

First: Cc1cccc2nc(NCCc3nnc(C4CCOCC4)[nH]3)sc12
Second: CC[C@H](NS(=O)(=O)N1CCOCC1)c1nc(-c2ccccc2)c[nH]1
The “% Inhibition” value of the first is lower: -8% for the first, -6% for the second.

First: O=C(NC1CCN(Cc2ccccc2)CC1CO)c1ccc(Cl)s1 (stereo unspecified)
Second: O=C1NCCCC[C@@H]1NC1CCN(Cc2ccccc2)CC1
The “% Inhibition” value of the first is lower: -13% for the first, -7% for the second.

First: COc1cccc(CNC(=O)c2ccc(NS(=O)(=O)c3ccc(-c4cccc(F)c4)cc3)cc2)c1
Second: CCOc1ccc(NC(=O)[C@@H]2CN(S(=O)(=O)c3ccc(OC)cc3)c3ccc(C)cc3O2)cc1
The “% Inhibition” value of the first is lower: -14% for the first, -11% for the second.

First: Cc1ccccc1-c1nc2n(CC(=O)N3CCN(c4ccc(F)cc4)CC3)c(C)cc(=O)n2n1
Second: CCN(CCC(=O)N1CCCC1)C(=O)c1cc2n(n1)CCCN(Cc1ccc(F)cc1)C2=O
The “% Inhibition” value of the first is higher: -9% for the first, -14% for the second.

First: CCCc1ccc(CN2CCc3[nH]cnc3[C@@H]2C2CC2)o1
Second: CCCN1CCC(NC(=O)Cc2cccs2)CC1
The “% Inhibition” value of the first is lower: -10% for the first, 9% for the second.

First: COC1(C)CN(c2cc(C3CC3)ncn2)C1
Second: CCc1cc(N2CCC[C@H](n3ccnn3)C2)nc(CC)n1
The “% Inhibition” value of the first is higher: -2% for the first, -8% for the second.

Compared with COC1CCCCC1NC(=O)Nc1cccc(-c2ncc(C)o2)c1 (stereo unspecified), CO[C@H]1CCCC[C@@H]1NC(=O)N1CCC[C@@H]1c1csc(C)n1 is lower in “% Inhibition” value: -3% for the first, -12% for the second.

First: CC(C)C(=O)N(Cc1cc(NC(=O)c2cccs2)ccc1N(C)C)CC1CC1
Second: O=C(Nc1ccc2c(c1)C(O)=Nc1cccnc1O2)C1CCCC1
The “% Inhibition” value of the first is lower: -14% for the first, 8% for the second.

Going from Cc1ccncc1NC(=O)C1CCCN(C(=O)OC(C)(C)C)C1C (stereo unspecified) to Cc1ccc(C(C)(C)CN(C)CC(=O)NC(N)=O)cc1, the “% Inhibition” value falls from -2% to -15%.

First: CCOc1cc(CNc2ccc3c(c2)OCO3)ccc1OC
Second: CC(C)COc1ccc(CN=C(N)N)cc1Cl
The “% Inhibition” value of the first is lower: -1% for the first, 12% for the second.

Compared with CC1CCCC(C)N1C(=O)C(=O)Nc1ccc(NC(N)=O)cc1 (stereo unspecified), O=C(CS(=O)(=O)c1ccccc1)NC1CCCCCC1 is higher in “% Inhibition” value: -9% for the first, -1% for the second.

First: C[C@H](NC(=O)c1cc(F)cc(F)c1)c1ccccc1NC(=O)c1cc(F)cc(F)c1
Second: O=C(Nc1cc(Cl)ccc1O)c1cnc(-c2ccncc2)s1
The “% Inhibition” value of the first is higher: 31% for the first, -11% for the second.

Going from CN(C)S(=O)(=O)N[C@H]1CCN(C(=O)COc2ccccc2)C1 to Cc1nc(CC2CCCN(C(=O)NC3CCN(c4ccccn4)C3)C2)no1 (stereo unspecified), the “% Inhibition” value rises from -8% to -5%.

Compared with COc1cc(NC(=O)Cn2cc(C)cn2)sn1, COCC(=O)Nc1cc(C)nn1-c1nc2c(c(=O)[nH]1)CCC2 is higher in “% Inhibition” value: 0% for the first, 1% for the second.

Going from CC(C)(C)N(CCS(C)(=O)=O)C(=O)c1cc(Cl)sc1Cl to Cc1ccc(Cl)c(N(Cc2ncc[nH]2)C(=O)c2cscn2)c1, the “% Inhibition” value falls from -8% to -11%.

First: CC1CCN(c2ccc3nnc(CCC(=O)N4CCN(c5ccccn5)CC4)n3n2)CC1
Second: O=S(=O)(c1ccc(-n2cnnn2)cc1)N1CCN(c2cnccn2)CC1
The “% Inhibition” value of the first is lower: -18% for the first, -5% for the second.

Compared with Cc1nc2c(c(N3CCCC3)n1)CCN(C(=O)CCCn1cncn1)C2, COc1ccccc1C(=O)N1CCn2c(nnc2[C@@H]2CCCCN2C(=O)N(C)C)C1 is lower in “% Inhibition” value: 3% for the first, 2% for the second.

First: Cc1cc(C)c(CCNCc2c[nH]nc2-c2cccnc2)c(C)c1
Second: O=C(NCc1ccc2nonc2c1)N(Cc1cccnc1)C1CCCCC1
The “% Inhibition” value of the first is lower: -7% for the first, 8% for the second.

Going from NS(=O)(=O)c1csc(C2OCCO2)c1 to COc1ccc(-n2cccn2)cc1S(=O)(=O)N1CCc2[nH]cnc2C1, the “% Inhibition” value rises from -9% to 3%.

First: O=C(CN1CCC(c2ncccn2)CC1)Nc1ccc(F)cc1F
Second: COCc1cn([C@@H]2CC[C@H]3CCOc4ccccc4C(=O)N4CCNC[C@H]4C(=O)NC[C@H]2O3)nn1
The “% Inhibition” value of the first is lower: -22% for the first, 31% for the second.

Compared with COc1ccc(OC)c2c1cc1n2CC(C)(C(=O)NC2CCCCC2C)N(CCC(C)C)C1=O (stereo unspecified), CCCCN(C)c1nnc(NC(=O)NCc2ccccc2)s1 is lower in “% Inhibition” value: -7% for the first, -19% for the second.

In the case of c1ccc(NCC2OCc3ccccc3CO2)cc1, the “% Inhibition” value is reported as -6%.

First: Cc1cccc2nc(NCCc3nnc(C4CCOCC4)[nH]3)sc12
Second: CC[C@H](NS(=O)(=O)N1CCOCC1)c1nc(-c2ccccc2)c[nH]1
The Z score of the first is higher: 1.07 for the first, 0.98 for the second.

Going from O=C(NC1CCN(Cc2ccccc2)CC1CO)c1ccc(Cl)s1 (stereo unspecified) to O=C1NCCCC[C@@H]1NC1CCN(Cc2ccccc2)CC1, the Z score falls from 1.55 to 1.35.

Going from COc1cccc(CNC(=O)c2ccc(NS(=O)(=O)c3ccc(-c4cccc(F)c4)cc3)cc2)c1 to CCOc1ccc(NC(=O)[C@@H]2CN(S(=O)(=O)c3ccc(OC)cc3)c3ccc(C)cc3O2)cc1, the Z score falls from 2.19 to 1.48.

First: Cc1ccccc1-c1nc2n(CC(=O)N3CCN(c4ccc(F)cc4)CC3)c(C)cc(=O)n2n1
Second: CCN(CCC(=O)N1CCCC1)C(=O)c1cc2n(n1)CCCN(Cc1ccc(F)cc1)C2=O
The Z score of the first is higher: 1.41 for the first, 1.34 for the second.

First: CCCc1ccc(CN2CCc3[nH]cnc3[C@@H]2C2CC2)o1
Second: CCCN1CCC(NC(=O)Cc2cccs2)CC1
The Z score of the first is higher: 1.54 for the first, -0.79 for the second.

Compared with COC1(C)CN(c2cc(C3CC3)ncn2)C1, CCc1cc(N2CCC[C@H](n3ccnn3)C2)nc(CC)n1 is higher in Z score: 0.28 for the first, 1.73 for the second.

First: COC1CCCCC1NC(=O)Nc1cccc(-c2ncc(C)o2)c1 (stereo unspecified)
Second: CO[C@H]1CCCC[C@@H]1NC(=O)N1CCC[C@@H]1c1csc(C)n1
The Z score of the first is lower: 0.66 for the first, 1.39 for the second.

Going from CC(C)C(=O)N(Cc1cc(NC(=O)c2cccs2)ccc1N(C)C)CC1CC1 to O=C(Nc1ccc2c(c1)C(O)=Nc1cccnc1O2)C1CCCC1, the Z score falls from 2.64 to -0.97.

Going from Cc1ccncc1NC(=O)C1CCCN(C(=O)OC(C)(C)C)C1C (stereo unspecified) to Cc1ccc(C(C)(C)CN(C)CC(=O)NC(N)=O)cc1, the Z score rises from 0.29 to 3.07.

First: CCOc1cc(CNc2ccc3c(c2)OCO3)ccc1OC
Second: CC(C)COc1ccc(CN=C(N)N)cc1Cl
The Z score of the first is higher: 0.26 for the first, -2.22 for the second.

Going from CC1CCCC(C)N1C(=O)C(=O)Nc1ccc(NC(N)=O)cc1 (stereo unspecified) to O=C(CS(=O)(=O)c1ccccc1)NC1CCCCCC1, the Z score falls from 1.57 to 0.17.

First: C[C@H](NC(=O)c1cc(F)cc(F)c1)c1ccccc1NC(=O)c1cc(F)cc(F)c1
Second: O=C(Nc1cc(Cl)ccc1O)c1cnc(-c2ccncc2)s1
The Z score of the first is lower: -4.12 for the first, 1.54 for the second.

First: CN(C)S(=O)(=O)N[C@H]1CCN(C(=O)COc2ccccc2)C1
Second: Cc1nc(CC2CCCN(C(=O)NC3CCN(c4ccccn4)C3)C2)no1 (stereo unspecified)
The Z score of the first is higher: 1.43 for the first, 0.67 for the second.

First: COc1cc(NC(=O)Cn2cc(C)cn2)sn1
Second: COCC(=O)Nc1cc(C)nn1-c1nc2c(c(=O)[nH]1)CCC2
The Z score of the first is higher: 0.03 for the first, -0.17 for the second.

First: CC(C)(C)N(CCS(C)(=O)=O)C(=O)c1cc(Cl)sc1Cl
Second: Cc1ccc(Cl)c(N(Cc2ncc[nH]2)C(=O)c2cscn2)c1
The Z score of the first is lower: 1.31 for the first, 1.36 for the second.

First: CC1CCN(c2ccc3nnc(CCC(=O)N4CCN(c5ccccn5)CC4)n3n2)CC1
Second: O=S(=O)(c1ccc(-n2cnnn2)cc1)N1CCN(c2cnccn2)CC1
The Z score of the first is higher: 1.73 for the first, 0.91 for the second.

First: Cc1nc2c(c(N3CCCC3)n1)CCN(C(=O)CCCn1cncn1)C2
Second: COc1ccccc1C(=O)N1CCn2c(nnc2[C@@H]2CCCCN2C(=O)N(C)C)C1
The Z score of the first is lower: -0.46 for the first, -0.25 for the second.

Compared with Cc1cc(C)c(CCNCc2c[nH]nc2-c2cccnc2)c(C)c1, O=C(NCc1ccc2nonc2c1)N(Cc1cccnc1)C1CCCCC1 is lower in Z score: 1.01 for the first, -1.09 for the second.

Compared with NS(=O)(=O)c1csc(C2OCCO2)c1, COc1ccc(-n2cccn2)cc1S(=O)(=O)N1CCc2[nH]cnc2C1 is lower in Z score: 1.68 for the first, -0.55 for the second.

Going from O=C(CN1CCC(c2ncccn2)CC1)Nc1ccc(F)cc1F to COCc1cn([C@@H]2CC[C@H]3CCOc4ccccc4C(=O)N4CCNC[C@H]4C(=O)NC[C@H]2O3)nn1, the Z score falls from 2.18 to -3.49.

Going from COc1ccc(OC)c2c1cc1n2CC(C)(C(=O)NC2CCCCC2C)N(CCC(C)C)C1=O (stereo unspecified) to CCCCN(C)c1nnc(NC(=O)NCc2ccccc2)s1, the Z score rises from 1.2 to 2.84.

With c1ccc(NCC2OCc3ccccc3CO2)cc1 the Z score was 0.76.
